{
  "source": "the supplement of paper PMC8728848",
  "binders": {"B1": {"name": "RBMC2 (Vibrio cholerae) (protein)", "chain": "KISVRSGFAIDAIGASASTLVGGTGGNLNAAVNVKDIKAIDLTWGKYYWGGYHLLALDFRMSNGSVISMGSKNYAYSKQTERFTVPAGSRIKGIKAWTAGWLLDGVQFELA"}},
  "test_in_all_cases": "glycan array binding signal (z-score within array); higher = stronger binding",
  "conditions_in_all_cases": "glycan notation: IUPAC condensed, linker removed",
  "key": {"[1]": {"target": "GalNAc(b1-4)GlcNAc(b1-2)Man", "summary_of_the_method": "(§1)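 The binding signal is a Z-score computed within each array. Data were drawn from 3228 arrays in the Consortium for Functional Glycomics database, restricted to those with a known protein sequence. Scores were averaged over arrays of the same protein sequence at different concentrations or buffers, and over linkers, and negative values can be taken as non-binding.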"}, "[2]": {"target": "GalNAc(b1-4)GlcNAc(b1-2)Man(a1-3)[GalNAc(b1-4)GlcNAc(b1-2)Man(a1-6)]Man(b1-4)GlcNAc(b1-4)GlcNAc", "summary_of_the_method": "as §1"}, "[3]": {"target": "GalNAc(b1-4)GlcNAc(b1-3)GalNAc(b1-4)GlcNAc", "summary_of_the_method": "as §1"}, "GalNAc(b1-4)GlcNAc6S": {"target": "GalNAc(b1-4)GlcNAc6S", "summary_of_the_method": "as §1"}, "GalNAc(b1-6)GalNAc": {"target": "GalNAc(b1-6)GalNAc", "summary_of_the_method": "as §1"}, "GalNAc3S(b1-4)GlcNAc": {"target": "GalNAc3S(b1-4)GlcNAc", "summary_of_the_method": "as §1"}, "GalNAc3S(b1-4)GlcNAc3S": {"target": "GalNAc3S(b1-4)GlcNAc3S", "summary_of_the_method": "as §1"}, "[4]": {"target": "GalNAc3S(b1-4)[Fuc(a1-3)]GlcNAc", "summary_of_the_method": "as §1"}, "GalNAc4S6S(b1-4)GlcNAc": {"target": "GalNAc4S6S(b1-4)GlcNAc", "summary_of_the_method": "as §1"}, "GalNAc6S(b1-4)GlcNAc": {"target": "GalNAc6S(b1-4)GlcNAc", "summary_of_the_method": "as §1"}, "Glc(a1-4)Glc": {"target": "Glc(a1-4)Glc", "summary_of_the_method": "as §1"}, "[5]": {"target": "Glc(a1-4)Glc(a1-4)Glc(a1-4)Glc", "summary_of_the_method": "as §1"}, "Glc(a1-6)Glc(a1-6)Glc": {"target": "Glc(a1-6)Glc(a1-6)Glc", "summary_of_the_method": "as §1"}, "[6]": {"target": "Glc(a1-6)Glc(a1-6)Glc(a1-6)Glc", "summary_of_the_method": "as §1"}, "Glc(b1-4)Glc": {"target": "Glc(b1-4)Glc", "summary_of_the_method": "as §1"}, "Glc(b1-6)Glc": {"target": "Glc(b1-6)Glc", "summary_of_the_method": "as §1"}, "GlcA(b1-3)Gal": {"target": "GlcA(b1-3)Gal", "summary_of_the_method": "as §1"}, "GlcA(b1-3)GlcNAc": {"target": "GlcA(b1-3)GlcNAc", "summary_of_the_method": "as §1"}, "GlcA(b1-6)Gal": {"target": "GlcA(b1-6)Gal", "summary_of_the_method": "as §1"}, "[7]": {"target": "GlcA3S(b1-3)Gal(b1-4)GlcNAc(b1-2)Man", "summary_of_the_method": "as §1"}, "[8]": {"target": "GlcA3S(b1-3)Gal(b1-4)GlcNAc(b1-3)Gal(b1-4)Glc", "summary_of_the_method": "as §1"}, "[9]": {"target": "GlcNAc(a1-3)Gal(b1-4)GlcNAc", "summary_of_the_method": "as §1"}, "[10]": {"target": "GlcNAc(a1-4)Gal(b1-3)GlcNAc", "summary_of_the_method": "as §1"}, "[11]": {"target": "GlcNAc(a1-4)Gal(b1-4)GalNAc", "summary_of_the_method": "as §1"}, "[12]": {"target": "GlcNAc(a1-4)Gal(b1-4)GlcNAc", "summary_of_the_method": "as §1"}, "[13]": {"target": "GlcNAc(a1-4)Gal(b1-4)GlcNAc(b1-3)Gal(b1-4)Glc", "summary_of_the_method": "as §1"}, "[14]": {"target": "GlcNAc(a1-4)Gal(b1-4)GlcNAc(b1-3)Gal(b1-4)GlcNAc", "summary_of_the_method": "as §1"}, "[15]": {"target": "GlcNAc(a1-4)Gal(b1-4)GlcNAc(b1-3)Gal(b1-4)GlcNAc(b1-3)Gal(b1-4)GlcNAc", "summary_of_the_method": "as §1"}, "[16]": {"target": "GlcNAc(a1-4)Gal(b1-4)GlcNAc(b1-3)Gal(b1-4)[Fuc(a1-3)]GlcNAc(b1-3)Gal(b1-4)[Fuc(a1-3)]GlcNAc", "summary_of_the_method": "as §1"}, "[17]": {"target": "GlcNAc(a1-6)Gal(b1-4)GlcNAc", "summary_of_the_method": "as §1"}, "[18]": {"target": "GlcNAc(b1-2)Gal(b1-3)GalNAc", "summary_of_the_method": "as §1"}, "[19]": {"target": "GlcNAc(b1-2)Man(a1-3)[GlcNAc(b1-2)Man(a1-6)]Man(b1-4)GlcNAc(b1-4)GlcNAc", "summary_of_the_method": "as §1"}, "[20]": {"target": "GlcNAc(b1-2)Man(a1-3)[GlcNAc(b1-2)Man(a1-6)]Man(b1-4)GlcNAc(b1-4)[Fuc(a1-6)]GlcNAc", "summary_of_the_method": "as §1"}, "[21]": {"target": "GlcNAc(b1-2)Man(a1-3)[GlcNAc(b1-4)][GlcNAc(b1-2)Man(a1-6)]Man(b1-4)GlcNAc(b1-4)GlcNAc", "summary_of_the_method": "as §1"}, "[22]": {"target": "GlcNAc(b1-2)Man(a1-3)[GlcNAc(b1-4)][GlcNAc(b1-2)Man(a1-6)]Man(b1-4)GlcNAc(b1-4)[Fuc(a1-6)]GlcNAc", "summary_of_the_method": "as §1"}, "[23]": {"target": "GlcNAc(b1-2)[GlcNAc(b1-4)]Man(a1-3)[GlcNAc(b1-2)Man(a1-6)]Man(b1-4)GlcNAc(b1-4)GlcNAc", "summary_of_the_method": "as §1"}, "[24]": {"target": "GlcNAc(b1-2)[GlcNAc(b1-4)]Man(a1-3)[GlcNAc(b1-4)][GlcNAc(b1-2)Man(a1-6)]Man(b1-4)GlcNAc(b1-4)GlcNAc", "summary_of_the_method": "as §1"}, "[25]": {"target": "GlcNAc(b1-2)[GlcNAc(b1-4)]Man(a1-3)[GlcNAc(b1-4)][GlcNAc(b1-2)[GlcNAc(b1-6)]Man(a1-6)]Man(b1-4)GlcNAc(b1-4)GlcNAc", "summary_of_the_method": "as §1"}, "[26]": {"target": "GlcNAc(b1-2)[GlcNAc(b1-4)]Man(a1-3)[GlcNAc(b1-4)][GlcNAc(b1-2)[GlcNAc(b1-6)]Man(a1-6)]Man(b1-4)GlcNAc(b1-4)[Fuc(a1-6)]GlcNAc", "summary_of_the_method": "as §1"}, "[27]": {"target": "GlcNAc(b1-2)[GlcNAc(b1-6)]Man(a1-6)[GlcNAc(b1-2)Man(a1-3)]Man(b1-4)GlcNAc(b1-4)GlcNAc", "summary_of_the_method": "as §1"}, "[28]": {"target": "GlcNAc(b1-2)[GlcNAc(b1-6)]Man(a1-6)[GlcNAc(b1-2)Man(a1-3)]Man(b1-4)GlcNAc(b1-4)[Fuc(a1-6)]GlcNAc", "summary_of_the_method": "as §1"}, "[29]": {"target": "GlcNAc(b1-2)[GlcNAc(b1-6)]Man(a1-6)[GlcNAc(b1-4)][GlcNAc(b1-2)Man(a1-3)]Man(b1-4)GlcNAc(b1-4)GlcNAc", "summary_of_the_method": "as §1"}, "GlcNAc(b1-3)Fuc": {"target": "GlcNAc(b1-3)Fuc", "summary_of_the_method": "as §1"}, "GlcNAc(b1-3)Gal": {"target": "GlcNAc(b1-3)Gal", "summary_of_the_method": "as §1"}, "[30]": {"target": "GlcNAc(b1-3)Gal(b1-3)GalNAc", "summary_of_the_method": "as §1"}},
  "note": "Some of the results follow.",
  "data": [
    {"binder": "B1", "values": [
      {"measurement": "glycan array binding signal (z-score)", "setting": "[1]", "value": -0.406},
      {"measurement": "glycan array binding signal (z-score)", "setting": "[2]", "value": 1.47},
      {"measurement": "glycan array binding signal (z-score)", "setting": "[3]", "value": -0.173},
      {"measurement": "glycan array binding signal (z-score)", "setting": "GalNAc(b1-4)GlcNAc6S", "value": -0.098},
      {"measurement": "glycan array binding signal (z-score)", "setting": "GalNAc(b1-6)GalNAc", "value": -0.377},
      {"measurement": "glycan array binding signal (z-score)", "setting": "GalNAc3S(b1-4)GlcNAc", "value": -0.423},
      {"measurement": "glycan array binding signal (z-score)", "setting": "GalNAc3S(b1-4)GlcNAc3S", "value": -0.32},
      {"measurement": "glycan array binding signal (z-score)", "setting": "[4]", "value": -0.208},
      {"measurement": "glycan array binding signal (z-score)", "setting": "GalNAc4S6S(b1-4)GlcNAc", "value": -0.152},
      {"measurement": "glycan array binding signal (z-score)", "setting": "GalNAc6S(b1-4)GlcNAc", "value": -0.322},
      {"measurement": "glycan array binding signal (z-score)", "setting": "Glc(a1-4)Glc", "value": -0.286},
      {"measurement": "glycan array binding signal (z-score)", "setting": "[5]", "value": -0.345},
      {"measurement": "glycan array binding signal (z-score)", "setting": "Glc(a1-6)Glc(a1-6)Glc", "value": -0.384},
      {"measurement": "glycan array binding signal (z-score)", "setting": "[6]", "value": -0.018},
      {"measurement": "glycan array binding signal (z-score)", "setting": "Glc(b1-4)Glc", "value": -0.312},
      {"measurement": "glycan array binding signal (z-score)", "setting": "Glc(b1-6)Glc", "value": -0.449},
      {"measurement": "glycan array binding signal (z-score)", "setting": "GlcA(b1-3)Gal", "value": -0.199},
      {"measurement": "glycan array binding signal (z-score)", "setting": "GlcA(b1-3)GlcNAc", "value": 0.027},
      {"measurement": "glycan array binding signal (z-score)", "setting": "GlcA(b1-6)Gal", "value": -0.221},
      {"measurement": "glycan array binding signal (z-score)", "setting": "[7]", "value": -0.26},
      {"measurement": "glycan array binding signal (z-score)", "setting": "[8]", "value": -0.205},
      {"measurement": "glycan array binding signal (z-score)", "setting": "[9]", "value": -0.412},
      {"measurement": "glycan array binding signal (z-score)", "setting": "[10]", "value": -0.372},
      {"measurement": "glycan array binding signal (z-score)", "setting": "[11]", "value": -0.076},
      {"measurement": "glycan array binding signal (z-score)", "setting": "[12]", "value": -0.071},
      {"measurement": "glycan array binding signal (z-score)", "setting": "[13]", "value": -0.349},
      {"measurement": "glycan array binding signal (z-score)", "setting": "[14]", "value": -0.281},
      {"measurement": "glycan array binding signal (z-score)", "setting": "[15]", "value": -0.275},
      {"measurement": "glycan array binding signal (z-score)", "setting": "[16]", "value": -0.211},
      {"measurement": "glycan array binding signal (z-score)", "setting": "[17]", "value": -0.424},
      {"measurement": "glycan array binding signal (z-score)", "setting": "[18]", "value": -0.328},
      {"measurement": "glycan array binding signal (z-score)", "setting": "[19]", "value": 3.67},
      {"measurement": "glycan array binding signal (z-score)", "setting": "[20]", "value": 0.835},
      {"measurement": "glycan array binding signal (z-score)", "setting": "[21]", "value": -0.353},
      {"measurement": "glycan array binding signal (z-score)", "setting": "[22]", "value": -0.322},
      {"measurement": "glycan array binding signal (z-score)", "setting": "[23]", "value": 1.99},
      {"measurement": "glycan array binding signal (z-score)", "setting": "[24]", "value": -0.138},
      {"measurement": "glycan array binding signal (z-score)", "setting": "[25]", "value": -0.378},
      {"measurement": "glycan array binding signal (z-score)", "setting": "[26]", "value": -0.127},
      {"measurement": "glycan array binding signal (z-score)", "setting": "[27]", "value": -0.232},
      {"measurement": "glycan array binding signal (z-score)", "setting": "[28]", "value": -0.178},
      {"measurement": "glycan array binding signal (z-score)", "setting": "[29]", "value": -0.289},
      {"measurement": "glycan array binding signal (z-score)", "setting": "GlcNAc(b1-3)Fuc", "value": -0.299},
      {"measurement": "glycan array binding signal (z-score)", "setting": "GlcNAc(b1-3)Gal", "value": -0.338},
      {"measurement": "glycan array binding signal (z-score)", "setting": "[30]", "value": -0.253}
    ]}
  ]
}
